Test results published in patent US20260308230 (published 2026).

T1: Activin B (UniProt P09529)
T1 chain: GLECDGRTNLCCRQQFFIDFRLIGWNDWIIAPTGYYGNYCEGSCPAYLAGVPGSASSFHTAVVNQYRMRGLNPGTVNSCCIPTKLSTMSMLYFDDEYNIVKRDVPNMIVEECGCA

T2: GDF-11 (UniProt O95390)
T2 chain: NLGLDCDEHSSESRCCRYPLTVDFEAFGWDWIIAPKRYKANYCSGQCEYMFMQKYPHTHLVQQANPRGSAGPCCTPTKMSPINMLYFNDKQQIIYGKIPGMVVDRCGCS

T3: Activin A (human, UniProt P08476)
T3 chain: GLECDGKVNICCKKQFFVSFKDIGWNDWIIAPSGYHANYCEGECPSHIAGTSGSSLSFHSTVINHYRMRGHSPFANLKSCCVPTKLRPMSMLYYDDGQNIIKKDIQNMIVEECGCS

T4: BMP-10 (human, UniProt O95393)
T4 chain: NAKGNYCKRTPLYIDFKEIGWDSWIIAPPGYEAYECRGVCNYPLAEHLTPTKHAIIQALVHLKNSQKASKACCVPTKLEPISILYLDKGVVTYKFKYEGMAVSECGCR


What was measured:
Assay in all cases: BLI, 25C
Activin B = target: T1, Activin B
GDF-11 = target: T2, GDF-11
Activin A [1] = target: T3, Activin A
Activin A [2] = target: T3, Activin A
BMP-10 = target: T4, BMP-10
GDF-8 = GDF-8 (human, UniProt O14793)
Chain of GDF-8 (O14793 267-375): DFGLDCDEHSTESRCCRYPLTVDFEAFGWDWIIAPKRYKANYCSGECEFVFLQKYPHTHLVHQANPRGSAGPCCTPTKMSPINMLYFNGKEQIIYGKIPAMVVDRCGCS

Activin A [3] = target: T3, Activin A

Row | Binder | Kd (Activin B) [nM] | Kd (GDF-11) [nM] | Kd (Activin A [1]) [nM] | Kd (Activin A [2]) [nM] | Kd (BMP-10) [nM] | Kd (GDF-8) [nM] | binding result (Activin A [3])
1 | ACVR2A-Fc (WT) (protein, homodimer, ACVR2A ECD-linker-IgG1 Fc fusion) not shown | 4.62 | 8.48 | 0.351 | 0.0803 | 2.23 | 9.65 | 
2 | ACVR2A-24A/47A-Fc (protein) AILGRSETQECLFFNANWEKDRTAQTGVEPCYGDKDKRRHCFATWKAISGSIEIVKQGCWLDDINCYDRTDCVEKKDSPEVYFCCCEGNMCNEKFSYFPEMEVTQPTSNPVTPKPGGGGSGGGGSGGGGS[skipping human IgG1 Fc] |  |  |  |  |  |  | no binding

Like-named read-outs stand apart in the source and are kept apart here.
